# According to the supplement of paper PMC4604168 (melanoma cell lines):
# Some of the results follow. Many values rest on one well or one pass, so single values are uncertain.
# Tested on: A101D
# Experiment: cell count relative to DMSO control; melanoma cells; higher = more viable cells
# Details: library dose: standard library concentration; 72 h
# 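Note: cells treated in 1,536-well plates, then fixed and DAPI-stained, with nuclei counted from automated high-throughput microscope images.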
row,Structure (SMILES),cell count [%]
1,"O=C(O)c1ccc2c(c1)nc(Nc1cccc(Cl)c1)c1ccncc12 + O=c1cc(-c2cccc3c2Sc2ccccc2S3)oc(N2CCOCC2)c1 [KU55933] (first compound 2 µM, partner dose 5 µM)",66.9
2,"O=C(Nc1ccccc1)c1cc([N+](=O)[O-])ccc1Cl + COc1ccc(COc2ccc(Cc3cnc(N)nc3N)cc2OC)cc1 [GW2580] (first compound 10 µM, partner dose 5 µM)",84.3
3,"O=C(O)[C@@H]1[O][Sb](=[O])([O][Sb]2(=[O])[O][C@H]([C@H](O)CO)[C@H](O)[C@H](C(=O)O)[O]2)[O][C@H]([C@H](O)CO)[C@@H]1O (stereo not given in full) [stibogluconate] + O=c1cc(-c2cccc3c2Sc2ccccc2S3)oc(N2CCOCC2)c1 [KU55933] (first compound 10 µM, partner dose 5 µM)",86.2
4,"O=C(O)c1ccc2c(c1)nc(Nc1cccc(Cl)c1)c1ccncc12 + COc1ccc(-c2ccc3c(N4CCOCC4)nc(N4C[C@@H](C)O[C@@H](C)C4)nc3n2)cc1CO [KU0063794] (first compound 2 µM, partner dose 0.1 µM)",79.4
5,"O=C(Nc1ccccc1)c1cc([N+](=O)[O-])ccc1Cl + CCN(CC)CCCCNc1ncc2cc(-c3cc(OC)cc(OC)c3)c(NC(=O)NC(C)(C)C)nc2n1 [PD173074] (first compound 10 µM, partner dose 0.5 µM)",85.2
6,"Cn1nnc2c(C(N)=O)ncn2c1=O [temozolomide] + COc1cc2ncnc(Nc3ccc(Oc4ccccc4)cc3)c2cc1OC [SrcI1] (first compound 10 µM, partner dose 10 µM)",68.3
7,"O=C(Nc1ccccc1)c1cc([N+](=O)[O-])ccc1Cl + COC(=O)c1sccc1S(=O)(=O)Nc1ccc(Nc2ccccc2)cc1OC [GSK0660] (first compound 10 µM, partner dose 5 µM)",93.1
8,"Cc1cc(N2CCOCC2)cc2[nH]c(-c3c(NC[C@@H](O)c4cccc(Cl)c4)cc[nH]c3=O)nc12 + c1cc(-c2cnn3cc(-c4ccc(OCCN5CCCCC5)cc4)cnc23)ccn1 [Dorsomorphin] (first compound 1 µM, partner dose 2 µM)",84.4
9,"Cc1cc(N2CCOCC2)cc2[nH]c(-c3c(NC[C@@H](O)c4cccc(Cl)c4)cc[nH]c3=O)nc12 + COc1ccc(COc2ccc(Cc3cnc(N)nc3N)cc2OC)cc1 [GW2580] (first compound 1 µM, partner dose 5 µM)",97.8
10,"Cn1nnc2c(C(N)=O)ncn2c1=O [temozolomide] + O=C(Nc1ccccc1)c1cc([N+](=O)[O-])ccc1Cl [GW9662] (first compound 10 µM, partner dose 10 µM)",79.7
11,"O=C(Nc1cc(C(F)(F)F)cc(C(F)(F)F)c1)c1cc(Cl)ccc1O + COc1ccc(-c2ccc3c(N4CCOCC4)nc(N4C[C@@H](C)O[C@@H](C)C4)nc3n2)cc1CO [KU0063794] (first compound 0.08 µM, partner dose 0.1 µM)",88
12,"O=C(O)[C@@H]1[O][Sb](=[O])([O][Sb]2(=[O])[O][C@H]([C@H](O)CO)[C@H](O)[C@H](C(=O)O)[O]2)[O][C@H]([C@H](O)CO)[C@@H]1O (stereo not given in full) [stibogluconate] + COc1ccc(-c2ccc3c(N4CCOCC4)nc(N4C[C@@H](C)O[C@@H](C)C4)nc3n2)cc1CO [KU0063794] (first compound 10 µM, partner dose 0.1 µM)",79
13,"O=C(O)c1ccc2c(c1)nc(Nc1cccc(Cl)c1)c1ccncc12 + COC(=O)c1sccc1S(=O)(=O)Nc1ccc(Nc2ccccc2)cc1OC [GSK0660] (first compound 2 µM, partner dose 5 µM)",90.2
14,"O=C(O)c1ccc2c(c1)nc(Nc1cccc(Cl)c1)c1ccncc12 + O=C(O)C(=O)Nc1sc2c(c1C(=O)O)CCNC2 [TCS401] (first compound 2 µM, partner dose 8.33333 µM)",84.1
15,"O=C(O)c1ccc2c(c1)nc(Nc1cccc(Cl)c1)c1ccncc12 + Oc1cc(-c2nc(-c3ccccc3)[nH]c2-c2ccncc2)ccc1Cl [L779450] (first compound 2 µM, partner dose 1 µM)",51.9
